# Results as given in article PMC12136788.
# This is one part of the list.
# B1: chr16:20683585:20683586:+_ENSMUSG00000045983_ENSMUST00000044783|mus_hu|motif|central (ssRNA)
# RNA: GGGAGUUCUACAGUCCGACGAUCUAUUGCCUCUGUUAACAUCUUCAGUUUGAACAACUCUCCAAUAAACUUGAUAUUCCCGGAAGAGCGCCGCCGGGCUAUGUCCCGAGCCUCUUCCAGCUCUUCCUUCAGGCGUCCUCGUUCCAACAGAGGAUUGAGCAUCA
# B2: chr7:91030085:91030086:-_ENSMUSG00000070462_ENSMUST00000094216|mus_mus|motif|central (ssRNA)
# RNA: GGGAGUUCUACAGUCCGACGAUCAAUACUCCAGUACAUGCAGGGUAAAAACUUGACAUUGGGGGGGGGGGGAAAUCACUCGGUAGUGUAAUUUAAAAAAUAAAACACACGCUCACAGUAGCUUUCCCCCCCACUUGCAAAUCACAACAGAGGAUUGAGCAUCA
# B3: chr7:140404665:140404666:+_ENSG00000090266_ENST00000247866|hu_hu|hu_hu_hu_mus_False|18_88 (ssRNA)
# RNA: GGGAGUUCUACAGUCCGACGAUCUGCUCCUACUCGUCCAGAGAGUUUACACCUUCAGUCCUCGUCAUCAGGAGGGAUUCCCAGUUCUUCAUCUGUCCACUGUGAAGGAUCUGGAUACGGAAAGUGACCCAGCACAGCAUCCGACAACAGAGGAUUGAGCAUCA
# B4: chr14:78183846:78183847:+_ENSG00000119705_ENST00000557342|hu_hu|hu_hu_hu_mus_False|38_88 (ssRNA)
# RNA: GGGAGUUCUACAGUCCGACGAUCUCUCAGAAAUCUUUCUUCAUCAGCAUCAUCAGAUCCGUGCAAAGCCUUUGCUCUUUGAGCUUGAACGUGGAUCUUUACUCCAUAAAGCACUGUCAGAAAAGGUAAUUUUUUUUUUAAAGACAACAGAGGAUUGAGCAUCA
# B5: chrX:117043865:117043866:-_ENSG00000003096_ENST00000371882|hu_mus|FALSE|FALSE (ssRNA)
# RNA: GGGAGUUCUACAGUCCGACGAUCGCGAAGCCAGCGACAGGUAGCUUUGAAGAGGUCAAGUUCGGUGCAGCGCUUAAGGCUGUUGCUGGACAGGACAAAGGCAAGGCGCUCGAAGGGAAGCUUCAGGAACUCCCCAGUGCUCAGCAACAGAGGAUUGAGCAUCA
# B6: chr5:137354059:137354060:-_ENSG00000031003_ENST00000033079|hu_mus|FALSE|FALSE (ssRNA)
# RNA: GGGAGUUCUACAGUCCGACGAUCGUGAAUAUGCAAGCUGCCAGGUAUGACGGGCUCAGGGAGCUCCUGCAGGAAAAACCUAAGGAGACUAAUGGCUGAGGGGACGUCCGCUUCCUUAACCAAGUCCACCUCUUCUCCACUGUCCAACAGAGGAUUGAGCAUCA
# Target: T1, UNK ZnF1-3 (human, UniProt Q9C0B0 31-174)
# T1 sequence: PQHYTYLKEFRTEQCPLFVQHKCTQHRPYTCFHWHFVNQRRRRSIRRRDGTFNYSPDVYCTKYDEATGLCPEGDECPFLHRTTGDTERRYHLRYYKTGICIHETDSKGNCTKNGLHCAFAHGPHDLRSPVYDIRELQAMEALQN
# Assay: nsRBNS (natural sequence RNA bind-n-seq); RBNS binding buffer (assumed for nsRBNS): 25 mM Tris pH 7.5, 150 mM KCl, 3 mM MgCl2, 0.01% Triton X-100, 500 ug/ml BSA, 20 U/ml SUPERase-In, 4 C; UNK is unkempt and MSI1 is Musashi-1; names of the RNAs are library labels; protein concentration not given here; high values mean tight binding
row,Binder,binding signal
1,B1,0.561 enrichment R
2,B2,0.48 enrichment R
3,B3,1.33 enrichment R
4,B4,1.02 enrichment R
5,B5,1.12 enrichment R
6,B6,0.886 enrichment R
